# Source: the supplement of paper PMC3334620
# The full ranking holds about 33,000 sequences; the median of “E-score (-0.5 to 0.5)” is about -0.054, and the highest 2% start at about 0.35. Some of the results follow.
# Target: T1, Stb5 (UniProt P38699)
# T1 sequence: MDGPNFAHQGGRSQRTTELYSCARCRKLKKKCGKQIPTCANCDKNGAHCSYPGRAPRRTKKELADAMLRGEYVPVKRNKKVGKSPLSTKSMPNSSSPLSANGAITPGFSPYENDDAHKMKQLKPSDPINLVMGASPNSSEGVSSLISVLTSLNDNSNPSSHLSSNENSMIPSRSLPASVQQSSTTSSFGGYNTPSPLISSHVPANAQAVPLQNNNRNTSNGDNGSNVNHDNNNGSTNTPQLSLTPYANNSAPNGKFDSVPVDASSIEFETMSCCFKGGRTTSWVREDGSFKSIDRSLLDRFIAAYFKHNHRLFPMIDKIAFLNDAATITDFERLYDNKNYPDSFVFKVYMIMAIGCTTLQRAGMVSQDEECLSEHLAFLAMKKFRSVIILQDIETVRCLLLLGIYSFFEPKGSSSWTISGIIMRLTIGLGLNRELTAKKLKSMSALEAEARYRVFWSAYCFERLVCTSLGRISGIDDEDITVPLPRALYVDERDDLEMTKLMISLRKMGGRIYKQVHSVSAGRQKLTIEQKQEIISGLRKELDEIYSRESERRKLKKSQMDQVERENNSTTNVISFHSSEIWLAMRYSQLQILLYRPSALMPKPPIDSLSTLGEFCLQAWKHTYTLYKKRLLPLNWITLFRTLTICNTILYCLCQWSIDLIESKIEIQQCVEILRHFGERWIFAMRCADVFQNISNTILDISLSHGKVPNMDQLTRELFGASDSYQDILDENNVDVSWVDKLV
# Assay: PBM E-score (8-mer binding enrichment) (E-score (-0.5 to 0.5)); higher = stronger / more preferred TF binding; most listed sequences are background and not binding sites
# Settings: protein concentration: 200 nM; construct: GST-full length
# Procedure, shortened: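 PURExpress in vitro transcription/translation supplied GST-tagged yeast transcription factors, either full-length or DNA-binding domain. Applied at about 100-200 nM to universal all-10-mer Agilent arrays double-stranded by primer extension, the bound protein was detected with fluorescent anti-GST. E-scores, modified Wilcoxon-Mann-Whitney statistics, were given by the Universal PBM Analysis Suite to ungapped eight-base words pooled with their reverse complements after masliner normalisation.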
row,Sequence,PBM E-score
1,CCGCGTTA,0.257
2,GCCGGACA,0.401
3,ACGTCGGG,0.334
4,TAATTCTA,-0.0445
5,GCGCTCGA,-0.0406
6,CTCCTGGA,-0.279
7,GGTATGTA,0.18
8,ATCTCCGC,0.406
9,CAAGAACA,-0.22
10,ACCCATCT,-0.0238
11,CCACTTGC,-0.109
12,CGCAAAGC,0.205
13,ACGAGGGA,-0.069
14,CTCCGAAA,0.182
15,GAGATGGA,-0.173
16,AGGCTTAA,-0.106
17,AAATGAAA,0.189
18,CGTCGGAA,0.24
19,CGACTCGA,-0.109
20,GCTTGCCA,-0.201
21,AGCGCGCT,0.0759
22,TCGGCGAA,0.181
23,ACTACTAG,-0.0862
24,AGGTATTA,0.212
25,ATTAAGTC,-0.094

row,Sequence,PBM E-score
1,CATAATCG,0.0763
2,CTACCGCA,0.164
3,AAGAGGTG,-0.0385
4,ACTCTAAA,0.01
5,CTGAAGTC,-0.0164
6,GCATCACC,0.125
7,TTCCTAAA,-0.118
8,GGTGACAA,0.273
9,AGAAGTCC,0.0982
10,CCGGCCGG,0.337
11,CAATACGC,-0.0778
12,CTGAACGC,-0.142
13,AGGTGAGG,-0.288
14,GCCCTGCC,-0.0572
15,CCCGGCAA,0.338
16,AAGTGCAA,-0.0923
17,TGTGATAA,-0.171
18,CACATGGA,-0.246
19,TGATTCAA,-0.0846
20,CAACCGGG,0.213
21,ATGAATAC,0.0275
22,TCGCCCAA,-0.239
23,ACGCGCGG,0.301
24,ACAATCGA,-0.161
25,TATACTGA,-0.168

row,Sequence,PBM E-score
1,ACAAAGTG,-0.151
2,CTCATAGA,-0.131
3,CGTTTGCC,0.00995
4,AGATAATG,0.0139
5,ATGAGGAC,-0.167
6,GCCATCGC,0.00556
7,ATTATTAA,0.138
8,TGAAAAAA,-0.0305
9,CACGCCGG,0.268
10,ACCACGTG,-0.0878
11,ACGTGTAG,-0.179
12,GCATCCCC,0.111
13,GCATACAA,-0.11
14,AACGGGAA,0.309
15,ACGGCGAG,0.043
16,GGACTCTA,0.0497
17,ATATCGGG,0.225
18,AATGAAGT,-0.153
19,TCAAATGA,0.0129
20,GAATAAAA,0.144
21,AGTCACCC,-0.101
22,CGTCGGTA,0.357
23,ATGCACAA,-0.216
24,AAACATGG,-0.105
25,AGGGCAGC,-0.329

row,Sequence,PBM E-score
1,ATATGATG,-0.132
2,GTTGTAAA,-0.118
3,TCCTAAGA,-0.0807
4,GCTTGATA,-0.0825
5,ACCAGCGC,-0.046
6,TTGCACAA,-0.0693
7,CGATCATC,0.136
8,AAGGCGGT,0.23
9,AGGCTAGG,-0.186
10,AGCATGTG,-0.158
11,TACGCGAA,0.0101
12,CATGATGA,-0.193
13,AAGTATCG,-0.0376
14,CCCAGCCC,-0.119
15,CCGCTAAA,0.301
16,GGATCCAA,0.0401
17,CGCGGAAG,0.0363
18,GCATTGCC,0.0425
19,GGAACGTA,-0.0894
20,AATAACTC,0.142
21,AATAGTTC,-0.0119
22,ACCGGTGC,0.377
23,ACCGTTTG,0.31
24,AGGGGTCC,-0.107
25,AGGGCCCC,-0.051

row,Sequence,PBM E-score
1,CGCCCAGA,-0.213
2,TGAGCGCA,-0.179
3,CCTGGCGA,-0.0125
4,TACCGTCA,0.305
5,AAAGTTGC,-0.0202
6,TAGCTCAA,-0.15
7,AAGGGGGA,-0.0674
8,AGGTCTTG,-0.0752
9,CGGAGGAA,0.251
10,TGGCAACA,-0.226
11,ATTGTATA,0.0899
12,CAACAGGC,-0.043
13,AATCCAGT,-0.142
14,TATTTCAA,-0.103
15,CCTTAGGA,-0.0624
16,ACGCCATG,-0.293
17,AAGCTTGG,-0.193
18,AACCACCT,0.0318
19,CGCTGGTA,0.261
20,AGGAGGAA,-0.127
21,AACTAGTC,-0.0284
22,ATACTGGG,-0.11
23,AACGATCG,-0.0892
24,ACCCAAGT,-0.211
25,AGCGTGAC,-0.0764

row,Sequence,PBM E-score
1,CTCTTCCC,-0.103
2,CAGGAACC,-0.143
3,CACGTCAA,-0.11
4,ATATCCAT,-0.0548
5,AGATCTAT,0.0233
6,AATTGGTC,0.0484
7,CGGGTACC,0.0398
8,ATCCGTCC,0.13
9,GAAACTTC,-0.0413
10,ATTTCCAC,0.0627
11,ATTAAAGG,0.0961
12,AGCTCTTG,-0.388
13,CCCTTACC,-0.125
14,ACGAACCG,-0.0115
15,AGTGCTGA,-0.186
16,ACGGCGGC,0.288
17,CGGTCCAG,0.00878
18,AACAACGC,0.021
19,ATATATGA,-0.153
20,AGCCTAAT,-0.324
21,AATATTAA,0.0579
22,GACGTACC,-0.0651
23,ACGCTAGG,-0.168
24,CTTTCGTA,-0.115
25,GCCAGGCA,-0.0827

row,Sequence,PBM E-score
1,ACGTCAAA,-0.248
2,CACCCTTA,-0.0843
3,GTATGATA,-0.0305
4,AGGGTCCC,-0.238
5,ATCCCTGA,-0.21
6,GCGAAGCC,-0.104
7,CCGAAAAG,0.0876
8,CTGTCTCA,-0.11
9,CAATATCC,0.176
10,AGTGCGGA,0.198
11,AGGGCCAC,-0.303
12,CCGGCTCC,0.162
13,GTTCGACA,0.0077
14,ACGTAATG,0.0151
15,AAACAGAT,-0.222
16,AGCTTTGG,-0.165
17,AAAATCGT,-0.0471
18,CAGAGCGC,-0.0425
19,AGATCCAT,0.0463
20,GTGCCAAC,0.112
21,TAAACTTA,-0.172
22,CTGTTTCA,-0.0942
23,ATGGGAGA,-0.331
24,GGAGAACC,0.0343
25,AGGCGCGG,0.244

row,Sequence,PBM E-score
1,TGAAGCCA,-0.164
2,AAGCTGGT,-0.381
3,CCACGTTC,-0.0756
4,ATAACAGC,0.329
5,CTCTCAAA,-0.154
6,GGTAAGGA,-0.148
7,ATTGCTTG,-0.28
8,CGTCCACC,-0.124
9,AAAACAAT,-0.191
10,CATTGGGC,-0.0666
11,GACTTCAC,-0.0283
12,ATCCTTCA,-0.0629
13,GCACTCAC,-0.17
14,GCGAGCGC,0.0927
15,GGCTTAAA,0.249
16,AATTAAAT,-0.119
17,CAGCCGAG,-0.132
18,CCATTTCC,0.0447
19,GCGTTTTA,0.0748
20,CACGATAC,-0.158
21,AATAATAA,0.0109
22,TCACGCCA,-0.261
23,GTCCAAGA,-0.0807
24,AAGTACCA,-0.0936
25,AGACTCCA,-0.139

row,Sequence,PBM E-score
1,TAGTTGAA,0.0136
2,TATAGGCA,-0.262
3,AGTAAGAG,-0.161
4,TAAACTGA,0.0428
5,CACACCGC,0.394
6,AACATAGG,-0.044
7,GCGTCACA,-0.183
8,ACGTCGGC,0.27
9,CCTCCAAA,-0.0727
10,ACCGCACA,0.169
11,AAAGGCTA,-0.2
12,ACCTATTC,0.163
13,AAATCGGA,0.234
14,GTCATTGA,-0.109
15,GATTCTAA,-0.153
16,AAGTCCGG,0.43
17,GCTAAGTA,-0.0566
18,CCTTTGCA,-0.0749
19,AGCGGCCT,0.377
